From PubChem BioAssay (Tox21)
Values joined by “and” are separate entries in the source; they are usually repeats but may differ in a detail not shown here. Identical values can stand only once. Inconclusive results, whose numbers are uncertain, are shown with a selection of clear calls. A potency beside an inconclusive call is a rough fit, not a confirmed value. A structure can be active in one record and inactive in another. Active and inactive are the calls of the source. The call rests on the fitted dose curve; in most records, active means well fitted activation curve with a large enough effect in the repeat runs; inconclusive means weak or mixed curves, or effect the other way; inactive means no such curve, though single readings can be large or run the other way.

Assay: qHTS assay to identify small molecule agonists of the retinoic acid receptor (RAR) signaling pathway (AID 1159553)
Conditions: C3RL4 RARE luciferase reporter, agonist, 6 h; activation: at 73.3 µM (top of the series) unless noted
Description: National Center for Advancing Translational Sciences [NCATS] NIH Chemical Genomics Center [NCGC] U.S. Environmental Protection Agency [EPA] National Institutes of Environmental Health Sciences [NIEHS] National Toxicology Program [NTP] Assay overview: All-trans Retinoic acid (atRA) is the potent natural metabolite of retinol and plays an important role in normal embryonic development and maintenance of cellular phenotype in adult animals. atRA is the activating ligand for the retinoic acid receptors (RARs) which form heterodimers with retinoid X receptors (RXRs) on the retinoic acid response element (RARE). Through activation of the RAR/RXRs nuclear receptors, atRA regulates the transcription of a large number of protein-coding genes and regulatory RNAs. Intracellular levels of atRA are controlled by the retinol signaling pathway (RSP) that regulates the biosynthesis and catabolism of atRA to maintain physiological levels. Chemicals that interfere with the RSP can cause abnormal intracellular levels of atRA and therefore are potential developmental toxicants. To assess compounds for the potential adverse effect on embryonic development through interfering with retinol signaling, a cell-based RARE luciferase reporter gene assay was used. C3RL4 cell line (OARSA/CFSAN/FDA, Laurel, MD) was used to screen Tox21 10K compound library for identifying activators of the RSP.
Assay Protocol Summary: C3RL4 cells were seeded at 1,000/well in 5 uL of assay medium into white solid 1,536-well tissue culture plates (Greiner Bio-One North America Inc. Monroe, NC) using a Multidrop Combi (Thermo Scientific, Waltham, MA) dispenser. After incubation at 37 C and 5% CO2 for an overnight, 23 nL of compounds dissolved in DMSO, positive control or DMSO only were transferred by a Pintool station (Kalypsys, San Diego, CA). After 6 hr incubation at 37 C and 5% CO2, 5 uL of Amplite Luciferase reagent (AAT Bioquest Inc. Sunnyvale, CA) was added to each assay plate using a Flying Reagent Dispenser (FRD) (Aurora Discovery, San Diego, CA). Luminescence was quantified on a ViewLux plate reader (PerkinElmer, Waltham, MA) after 30 min incubation at room temperature.
On the % scale 0 is the no-effect control and ±100 the full control effect; potency means the concentration at half of the fitted maximal effect; tags describe the fitted curve by direction and shape.

Row | Compound | Potency | activation
1 | COC(C)OC | inactive | 
2 | CCOC(=O)COc1cc(-n2ncc(C(F)(F)F)c(C)c2=O)c(F)cc1Cl |  | inconclusive: 8.32% [phenotype inactive]
3 | CCCCC(=O)O[C@]1(C(=O)CO)[C@@H](C)C[C@H]2[C@@H]3CCC4=CC(=O)C=C[C@]4(C)[C@@]3(F)[C@@H](O)C[C@@]21C | inconclusive: 68.6 µM [inhibitor] | 
4 | C1COCCN1 | inconclusive: 77 µM [activator, single point] | 
5 | O=C(O)C(=O)Cc1c[nH]c2ccccc12 | active: 34.4 µM | 
6 | Cn1sccc1=O | inconclusive: 8.63 µM [inhibitor, full curve] | 
7 | CCNc1ccccc1 | inconclusive: 62.2 µM [activator, partial curve, poor fit] | 
8 | CCOCCOC(=O)/C=C/c1ccc(OC)cc1 | active: 33.5 µM | 
9 | C=C(C)C(=O)OCCCCCCCCCC | inconclusive: 38.8 µM [inhibitor, partial curve] | 
10 | CC(=O)OC(C)C[N+](C)(C)C (stereo not given) | inactive | 
11 | CN(C)C(=O)Nc1ccc(Oc2ccc(Cl)cc2)cc1 | active: 61.1 µM | 
12 | O=[N+]([O-])c1cccc(Cl)c1 | inactive | 
13 | CC/C=C\C/C=C\C/C=C\CCCCCCCC(=O)OCC | inconclusive: 78.7 µM [activator] | 
14 | CCCCCCCC |  | inconclusive: -0.214% [phenotype inactive]
15 | c1ccc2c(c1)ccc1ncccc12 | inconclusive: 30.4 µM [activator] and inconclusive: 48.6 µM [activator] | 
16 | CC(C)Cc1ccc(CC(=O)O)cc1 | inconclusive: 26.6 µM [activator, partial curve] | 
17 | O=C(Oc1ccccc1)c1ccc2ccccc2c1O | active: 0.864 µM | 
18 | O=C1CCCCCN1SSN1CCCCCC1=O | inconclusive: 15.4 µM [inhibitor, full curve] | 
19 | Cc1cccc(CN2CCN(C(c3ccccc3)c3ccc(Cl)cc3)CC2)c1 (stereo not given) | inconclusive: 26.6 µM [inhibitor, partial curve, poor fit] | 

Row | Compound | Potency | activation
20 | CCCCOC(=O)c1ccc(O)cc1 | inconclusive: 11 µM [activator] and active: 27.3 µM and inconclusive: 13.3 µM [activator, partial curve] | 
21 | C=C1CC[C@H](O)CC1=C/C=C1\CCC[C@]2(C)[C@@H]([C@H](C)/C=C/[C@H](C)C(C)C)CC[C@@H]12 | active: 61.1 µM | inconclusive: 10.5% [phenotype inactive]
22 | CCN(CC#N)c1cccc(C)c1 | inconclusive: 77 µM [activator, partial curve, poor fit] | 
23 | CC1=C(/C=C/C(C)=C\C=C\C(C)=C\C(=O)O)C(C)(C)CCC1 | active: 0.0686 µM | 
24 | CCC(=O)O | inconclusive: 16.4 µM [inhibitor, single point] | inconclusive: 1.2% [phenotype inactive] [at 94.8 µM]
25 | O=C(Nc1ccccc1)c1ccccc1O | active: 8.63 µM | 
26 | CCOc1ccc(OCC)c(Cl)c1 | inactive | 
27 | CCC(=O)C(=O)CC | inactive | 
28 | CC(=O)OCC(=O)[C@@]1(OC(C)=O)[C@@H](C)C[C@H]2[C@@H]3C[C@H](F)C4=CC(=O)C=C[C@]4(C)[C@@]3(F)[C@@H](O)C[C@@]21C |  | inconclusive: 10.6% [phenotype inactive]
29 | OCC1CC=CCC1 (stereo not given) | inconclusive: 68.6 µM [activator, single point] | 
30 | Cc1ccc(C(C)(C)C)cc1 |  | active: 0.0823% [at 94.8 µM]
31 | CCCOC(=O)C(C)O (stereo not given) | inconclusive: 78.5 µM [inhibitor, single point] | 
32 | CN(C)CC/C=C1\c2ccccc2Sc2ccc(Cl)cc21 | inconclusive: 29.8 µM [inhibitor, partial curve, poor fit] | 
33 | COc1cc(/C=C/c2ccccc2)oc(=O)c1 | active: 0.564 µM | 
34 | COCCc1ccc(OCC2CO2)cc1 (stereo not given) | inconclusive: 23.7 µM [activator, partial curve, poor fit] | 
35 | C(=C\c1ccccc1)/CN1CCN(C(c2ccccc2)c2ccccc2)CC1 | inconclusive: 29.8 µM [inhibitor, partial curve] | 
36 | CC(CC=O)c1ccccc1 (stereo not given) | inconclusive: 68.6 µM [activator, partial curve, poor fit] | 
37 | CO[C@H]1O[C@H](CO)[C@@H](O)[C@H](O)[C@H]1O | inactive | 

Same assay, conditions: C3RL4 RARE luciferase reporter, agonist, 6 h; at 73.3 µM (top of the series)

Row | Compound | activation
38 | Cc1ccc(C(C)(C)C)cc1 | inactive: -0.68%
